According to publication PMC9834212:
Results are given in words; binding and its absence hold for the method and conditions named. Binding seen in cells or lysates may run through a third protein. Some results given as binding are weak or reduced against the parent protein; the word gives no strength. For part of these data: Sequences can lack the tags named with a protein.

Protein sequences, listed by entry. Tags and fused reporters are not part of them.
UniProt P31323: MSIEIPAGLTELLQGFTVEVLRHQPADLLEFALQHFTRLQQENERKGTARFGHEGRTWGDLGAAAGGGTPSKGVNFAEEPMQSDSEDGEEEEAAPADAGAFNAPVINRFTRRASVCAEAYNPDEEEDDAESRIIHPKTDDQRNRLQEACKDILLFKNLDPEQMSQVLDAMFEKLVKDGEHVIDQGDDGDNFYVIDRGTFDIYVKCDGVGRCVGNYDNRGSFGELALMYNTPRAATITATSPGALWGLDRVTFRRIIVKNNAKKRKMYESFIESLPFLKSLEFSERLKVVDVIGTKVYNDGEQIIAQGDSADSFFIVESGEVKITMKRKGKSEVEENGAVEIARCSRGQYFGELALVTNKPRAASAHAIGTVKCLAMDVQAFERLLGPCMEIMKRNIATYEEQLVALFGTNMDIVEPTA
UniProt P13861: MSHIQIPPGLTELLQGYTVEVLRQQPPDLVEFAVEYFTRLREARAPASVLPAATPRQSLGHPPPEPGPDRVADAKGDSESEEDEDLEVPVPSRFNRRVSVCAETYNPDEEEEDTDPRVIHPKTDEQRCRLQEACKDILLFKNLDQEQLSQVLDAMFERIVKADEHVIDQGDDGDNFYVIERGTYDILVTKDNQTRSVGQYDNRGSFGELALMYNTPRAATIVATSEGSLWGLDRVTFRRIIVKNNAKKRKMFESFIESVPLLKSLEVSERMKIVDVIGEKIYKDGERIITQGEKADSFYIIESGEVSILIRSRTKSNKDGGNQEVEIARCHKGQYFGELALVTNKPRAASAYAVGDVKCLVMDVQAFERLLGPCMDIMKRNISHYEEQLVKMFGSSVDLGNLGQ

What was measured:
PKA RIIβ-Flag = PKA RIIβ-Flag (UniProt P31323); test: co-IP; PKA regulatory subunit-Flag and HA-ZNF185 (or its deletion mutant, or HA-mZfp185) overexpressed in HEK293T cells; lysates on anti-FLAG M2 affinity gel for 1 h at 4 °C; blots
PKA RIIα-Flag = PKA RIIα-Flag (UniProt P13861); test: as above
[1] = molecular target: T1, Myc-ZNF185 C-terminal fragment (aa 501–689) (human) (UniProt O15231); test: co-IP; PKA RIIα-Flag and Myc-ZNF185 fragments overexpressed in HEK293T cells; lysates on anti-c-Myc magnetic beads for 1 h at 4 °C; blots
T1 sequence: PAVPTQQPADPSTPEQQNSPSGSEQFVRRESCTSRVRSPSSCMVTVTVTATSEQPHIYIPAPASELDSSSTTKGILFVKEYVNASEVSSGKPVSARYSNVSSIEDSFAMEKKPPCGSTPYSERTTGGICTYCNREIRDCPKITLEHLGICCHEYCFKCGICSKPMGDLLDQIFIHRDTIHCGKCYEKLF

Substance | binding (PKA RIIβ-Flag) | binding (PKA RIIα-Flag) | binding [1]
HA-ZNF185 (full-length zinc-finger protein 185) (from UniProt O15231-1 1-689) | binds | binds | 
PKA RIIα-Flag (from UniProt P13861 1-404) |  |  | binds
